# Measurements published in the supplement of paper PMC9938546.
# Structures can show the parent of a compound that is named as a salt. The list shows a part of the results. Most values come without repeats; read them as rough.
# System: HCT116-GFP
# Experiment: HCT116-GFP viability (GFP intensity) relative to untreated control, monoculture; higher = less cancer cell killing
# Settings: culture: HCT116-GFP monoculture; 10 µM; 72 h
# 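Note: viability estimated indirectly by image-based GFP quantification with live-cell imaging of the constitutively GFP-expressing human colorectal cancer line, no immune cells added.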
row,Structure (SMILES),HCT116-GFP viability
1,NCCCCCC(=O)O [Aminocaproic acid],124%
2,CNCCc1ccccn1 [Betahistine mesylate],96.9%
3,CC=CC(=O)N(CC)c1ccccc1C [Crotamiton],104%
4,O=C(c1ccc(F)cc1)C1CCN(CCn2c(=O)[nH]c3ccccc3c2=O)CC1 [Ketanserin tartrate hydrate],103%
5,CCN(CC)C(=O)c1ccc(O)c(OC)c1 [Ethamivan],89.2%
6,Cc1[nH]cnc1CN1CCc2c(c3ccccc3n2C)C1=O [Alosetron hydrochloride],29.8%
7,CCCOc1ccc2[nH]c(NC(=O)OC)nc2c1 [Oxibendazol],12.5%
8,CN(CCCN1c2ccccc2CCc2ccccc21)CC(=O)c1ccc(Cl)cc1 [Lofepramine],99%
9,CN(C)CCOC(c1ccccc1)c1ccccc1.Cn1c(=O)c2[nH]c(Cl)nc2n(C)c1=O [Dimenhydrinate],98.5%
10,O=C1NCC2(CCN(CCc3ccccc3)CC2)O1 [Fenspiride hydrochloride],105%
11,Clc1ccc2c(c1)CCc1cccnc1C2=C1CCNCC1 [Desloratadine],49.6%
12,CCCCCCNC(=O)n1cc(F)c(=O)[nH]c1=O [Carmofur],37.6%
13,CCCOc1ccccc1-c1nc2[nH]nnc2c(=O)[nH]1 [Zaprinast],93.9%
14,COc1ccc(Cl)cc1C(=O)NCCc1ccc(S(=O)(=O)NC(=O)NC2CCCCC2)cc1 [Glibenclamide],90.2%
15,Nc1nc(=O)n([C@@H]2CS[C@H](CO)O2)cc1F [(-)-Emtricitabine],91.2%
16,CC#C[C@]1(O)CC[C@H]2[C@@H]3CCC4=CC(=O)CCC4=C3[C@@H](c3ccc(N(C)C)cc3)C[C@@]21C [Mifepristone],80.9%
17,CC(C(O)c1ccc(O)cc1)N1CCC(Cc2ccccc2)CC1 (stereo not drawn) [Ifenprodil tartrate],104%
18,CN1CCN2c3ncccc3Cc3ccccc3C2C1 (stereo not drawn) [Mirtazapine],98.6%
19,CC(C)[C@H](N)C(=O)OCCOCn1cnc2c(=O)nc(N)[nH]c21 [Valacyclovir hydrochloride],109%
20,CC1(C)O[C@@H]2C[C@H]3[C@@H]4C[C@H](F)C5=CC(=O)C=C[C@]5(C)[C@@]4(F)[C@@H](O)C[C@]3(C)[C@]2(C(=O)CO)O1 [Fluocinolone acetonide],121%
21,COc1cc(NS(=O)(=O)c2ccc(N)cc2)ncn1 [Sulfamonomethoxine],92.9%
22,Cc1cc(C)nc(NS(=O)(=O)c2ccc(N)cc2)n1 [Sulfamethazine sodium salt],110%
23,CN(C(=O)CN(CCO)CC(=O)N(C)C(C)(C)Cc1ccccc1)C(C)(C)Cc1ccccc1 [Oxethazaine],60.9%
24,COC(=O)N/N=C/c1c[n+]([O-])c2ccccc2[n+]1[O-] [Carbadox],92.3%

row,Structure (SMILES),HCT116-GFP viability
1,CCOC(=O)/C=C(C)/C=C/C=C(C)/C=C/c1c(C)cc(OC)c(C)c1C [Etretinate],84.7%
2,Cc1c(N)c(=O)n(-c2ccccc2)n1C [Ampyrone],94.8%
3,NC[C@H]1O[C@H](O[C@H]2[C@H](O)[C@@H](O[C@H]3O[C@H](CO)[C@@H](O)[C@H](N)[C@H]3O)[C@H](N)C[C@@H]2N)[C@H](N)C[C@@H]1O [Tobramycin],64.5%
4,C=CCOc1ccccc1OCC(O)CNC(C)C (stereo not drawn) [Oxprenolol hydrochloride],95.3%
5,O=P(O)(O)C(O)(Cn1ccnc1)P(=O)(O)O [Zoledronic acid hydrate],119%
6,Cc1cc(C(C)(C)C)cc(C)c1CC1=NCCN1 [Xylometazoline hydrochloride],98.6%
7,CCN(CC)C(=O)C1(c2ccccc2)CC1CN (stereo not drawn) [Milnacipran hydrochloride],91.9%
8,CCN(CCCCOC(=O)c1ccc(OC)c(OC)c1)C(C)Cc1ccc(OC)cc1 (stereo not drawn) [Mebeverine hydrochloride],97.1%
9,CCN(CC)CCOCCOC(=O)C1(c2ccccc2)CCCC1 [Carbetapentane citrate],94.9%
10,N[C@H]1CONC1=O [(S)-(-)-Cycloserine],88.6%
11,CCCCC1C(=O)N(c2ccccc2)N(c2ccc(O)cc2)C1=O (stereo not drawn) [Oxyphenbutazone],25.9%
12,CCN(CC)C(=O)Nc1ccc(OCC(O)CNC(C)(C)C)c(C(C)=O)c1 (stereo not drawn) [Celiprolol hydrochloride],99.1%
13,COc1cc2nc(N3CCN(C(=O)C4COc5ccccc5O4)CC3)nc(N)c2cc1OC (stereo not drawn) [Doxazosin mesylate],70%
14,CCOC1O[C@H]([C@@H](COCc2ccccc2)OCc2ccccc2)[C@H](OCc2ccccc2)[C@H]1O (stereo partly drawn) [Tribenoside],80.9%
15,CNCC(O)c1ccc(O)c(O)c1 (stereo not drawn) [Racepinephrine hydrochloride],66.2%
16,CCN(CC)CCNC(=O)c1ccc(N)cc1 [Procainamide hydrochloride],99.9%
17,CC(=O)Nc1c(I)c(C(=O)N[C@H]2C(O)O[C@H](CO)[C@@H](O)[C@@H]2O)c(I)c(N(C)C(C)=O)c1I (stereo partly drawn) [Metrizamide],108%
18,CC[C@H]1OC(=O)[C@H](C)[C@@H](O[C@H]2C[C@@](C)(OC)[C@@H](O)[C@H](C)O2)[C@H](C)[C@@H](O[C@@H]2O[C@H](C)C[C@H](N(C)C)[C@H]2O)[C@](C)(O)C[C@@H](C)CN(C)[C@H](C)[C@@H](O)[C@]1(C)O [Azithromycin],97.3%
19,C[C@@H]1CCC[C@H](C)N1NC(=O)c1ccc(Cl)c(S(N)(=O)=O)c1 [Clopamide],94.5%
20,CN[C@H]1CC[C@@H](c2ccc(Cl)c(Cl)c2)c2ccccc21 [Sertraline],43.6%
21,CC(CNC1CCCCC1)OC(=O)c1ccccc1 (stereo not drawn) [Hexylcaine hydrochloride],98.6%
22,Nc1ccc(S(=O)(=O)Nc2nccs2)cc1 [Sulfathiazole],107%
23,Cc1ccc(-c2cc(C(F)(F)F)nn2-c2ccc(S(N)(=O)=O)cc2)cc1 [Celecoxib],69.2%
24,C[C@]12CC[C@@H]3c4ccc(O)cc4C[C@@H](CCCCCCCCC[S+]([O-])CCCC(F)(F)C(F)(F)F)[C@H]3[C@@H]1CC[C@@H]2O (stereo partly drawn) [Fulvestrant],71.9%
